# From PubChem BioAssay AID1458 (National Center for Advancing Translational Sciences (NCATS), 2008)
# Among all 210,000 compounds or so, about 5,900 (2.8%) were called active. Inconclusive means that the source gave no clear call. Such entries were picked first, then a sample of the others. Calls come from the whole dose curve; as a rule, active = well fitted activation curve with a large enough effect; inconclusive = small, poorly fitted or top-dose-only effect; inactive = no such curve, though single readings can be large or run the other way. Potencies of inconclusive entries are doubtful fits and often do not repeat.
# Assay: qHTS Assay for Enhancers of SMN2 Splice Variant Expression; note: nearly all actives have a fitted effect of over 55% in size
# Details: HEK293 SMN2-luciferase splicing reporter, luminescence, 30-36 h; series mostly up to 46.1 µM
# Method in brief: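 qHTS luciferase splicing reporter: luminescence rises when SMN2 exon 7 is included in transfected HEK293 cells. Compound exposure lasted 30-36 h at 37C, with 4.5 mM final sodium butyrate as control, followed by a ONE-Glo read.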
# Potency is the fitted concentration of half-maximal effect; tags give direction and shape of the fitted curve.
row,Structure (SMILES),Potency
1,Cc1ccc2nc(-c3ccc(NC(=O)COC(=O)c4ccco4)cc3)sc2c1,active: 2.24 µM
2,CCc1ccc2nc(NC(=O)c3cc(C)on3)sc2c1,"inconclusive: 3.55 µM [activator, full curve]"
3,CN1C(=O)c2c(sc3c2CCCC3)NC1c1ccccc1O (configuration not stated),"inconclusive: 35.5 µM [activator, single point]"
4,COc1cccc(/C=C2\C(=O)N(c3cccc(C)c3)C(=O)c3ccccc32)c1,"inconclusive: 0.0501 µM [activator, full curve, poor fit]"
5,CNc1oc(/C=C/c2ccccc2)nc1C#N,active: 11.2 µM
6,COCCCNC(=O)c1ccc(Cn2c(=O)c3ccccc3n(CC(=O)Nc3c(C)cccc3C)c2=O)cc1,"inconclusive: 4.47 µM [activator, single point]"
7,Clc1ccc(Cn2nc(-c3ccccc3)nc2-c2ccccc2)cc1,"inconclusive: 35.5 µM [activator, single point]"
8,O=C(/C=C/c1ccccc1)NC1CCSC1=O (configuration not stated),active: 15.8 µM
9,Cc1ccc(OCC(=O)Nc2ccc(-c3nc4ncccc4o3)cc2)c(C)c1,"inconclusive: 11.2 µM [activator, single point]"
10,COc1ccc(C2C(C(=O)O)c3ccccc3C(=O)N2C)cc1Br (configuration not stated),"inconclusive: 7.08 µM [activator, full curve, poor fit]"
11,O=C(CCSCCC(=O)N1CCCC1)N1CCCC1,"inconclusive: 17.8 µM [activator, partial curve, poor fit]"
12,CCOc1ccc(N2CC(c3nc4ccccc4n3CCCOc3ccccc3OC)CC2=O)cc1 (configuration not stated),inactive
13,COc1cccc(NC(=O)CN2CCC(C)CC2)c1,"inconclusive: 14.1 µM [activator, partial curve]"
14,CCN(CC)S(=O)(=O)c1cccc(C(=O)Nc2ccc3c(c2)OCO3)c1,"inconclusive: 15.8 µM [activator, partial curve, poor fit]"
15,C=CCn1c(C)cc(C(=O)COC(=O)c2ccc3c(c2)NC(=O)CS3)c1C,inactive
16,COc1ccc(C=O)cc1OS(=O)(=O)c1ccc(NC(C)=O)cc1,"inconclusive: 0.199 µM [activator, full curve, poor fit]"
17,CCOC(=O)N1CCN(CC(=O)c2c(C)[nH]c3ccccc23)CC1,"inconclusive: 0.0032 µM [activator, full curve, poor fit]"
18,COc1ccccc1CN1CCC2(CCNCC2)CC1,inactive
19,CCC(CC)(CC(=O)Nc1cccc(/C=C/c2nc(C3CCC3)cs2)c1)C(=O)O,"inconclusive: 14.1 µM [activator, single point]"
20,CC(C)C(C)(C#N)NC(=O)CSc1nnc(C(F)(F)F)n1C (configuration not stated),"inconclusive: 4.47 µM [activator, partial curve]"
21,CSc1nn2c(C)c(C)c(C)nc2c1C#N,"inconclusive: 35.5 µM [activator, single point]"
22,CC(=O)c1sc(Nc2cccc(C)c2)nc1C,"inconclusive: 11.2 µM [activator, partial curve, poor fit]"
23,CCOC(=O)c1csc(NC(=O)C2CCCCC2)n1,"inconclusive: 11.2 µM [activator, partial curve, poor fit]"
24,COc1ccc(OC)c(-c2nnc(-c3ccc(C)o3)o2)c1,"inconclusive: 14.1 µM [activator, single point]"

row,Structure (SMILES),Potency
1,CC(=O)NCCOc1nc(N(C)C)nc(N2CCOCC2)n1,"inconclusive: 0.562 µM [activator, full curve, poor fit]"
2,CS(=O)(=O)c1ccc(Sc2nc3ccccc3s2)c([N+](=O)[O-])c1,"inconclusive: 31.6 µM [activator, single point]"
3,COc1ccc(/C=N/Nc2ncnc3sc4c(c23)CCCC4)cc1O,"inconclusive: 35.5 µM [activator, single point]"
4,COc1ccc(OC)c(-c2csc(NC(=O)c3ccc4c(c3)OCO4)n2)c1,"inconclusive: 12.6 µM [activator, single point]"
5,CCc1nn2c(=O)cc(N3CCN(c4cc(C)nc5ccccc45)CC3)nc2s1,"inconclusive: 0.631 µM [activator, full curve, poor fit]"
6,CCOC(=O)CSc1nc2cc(C)ccc2cc1C#N,active: 14.1 µM
7,CCOC(=O)N1CCc2c(sc3c2c(=O)n(-c2ccc(F)cc2)c(=O)n3CC(=O)c2ccc(Cl)cc2)C1,inactive
8,CS(=O)(=O)N1CCN(c2ccccc2NC(=O)Cc2ccc(Cl)cc2)CC1,"inconclusive: 1.41 µM [activator, full curve, poor fit]"
9,COc1ccc([N+](=O)[O-])cc1/C=N/Nc1nc(N2CCCCC2)nc(N2CCCCC2)n1,inactive
10,O=S(=O)(Nc1nc2ccccc2nc1N1CCc2ccccc2C1)c1ccc(Cl)cc1,inactive
11,CC(=O)c1ccc(NC(=O)c2noc3c2CCC3)cc1,"inconclusive: 0.355 µM [activator, full curve]"
12,Cc1ccc(N(C(=O)c2csnn2)C(C(=O)NC(C)(C)C)c2cccs2)cc1 (configuration not stated),inactive
13,C#CCN1C(=O)S/C(=C/C=C/c2ccc(N(C)C)cc2)C1=O,active: 7.08 µM
14,CC(C)(C)C(=O)Nc1ccc(-c2cn3ccsc3n2)cc1,"inconclusive: 7.94 µM [activator, partial curve, poor fit]"
15,COc1cccc(C(=O)NC(=O)Nc2cc(C)on2)c1,active: 11.2 µM
16,Cc1csc(NC(=O)c2ccc(N3CCCC3=O)cc2)n1,active: 0.562 µM
17,CCOc1ccc(-c2nnc(-c3ccncc3)o2)cc1,"inconclusive: 1.78 µM [activator, full curve, poor fit]"
18,O=C(Nc1ccc2c(c1)OCO2)c1cccs1,"inconclusive: 12.6 µM [activator, partial curve, poor fit]"
19,CCOc1ccccc1C(=O)OCC(=O)Nc1ccc(OC(F)F)cc1,"inconclusive: 14.1 µM [activator, single point]"
20,CN(CCc1ccc(Cl)c(Cl)c1)CCN1CCCCCC1,inactive
21,Cc1ccccc1C(=O)Nc1cccc(-c2ccc3nncn3n2)c1,inactive
22,Cc1ccc(C(=O)/C=C/Nc2ccc3c(c2)OCO3)cc1,"inconclusive: 35.5 µM [activator, partial curve, poor fit]"
23,COC(=O)c1ccc(-c2ccc(F)cc2)nc1C,"inconclusive: 35.5 µM [activator, partial curve, poor fit]"
24,O=C(NC1CCCCC1)N(CCN1CCCC1)Cc1cc2cc3c(cc2[nH]c1=O)OCCO3,"inconclusive: 31.6 µM [activator, single point]"

row,Structure (SMILES),Potency
1,N#CCCCS(=O)(=O)c1nc2ccccc2s1,inactive
2,COC(=O)c1sccc1N/N=C/c1ccc(OC)c(OC)c1OC,active: 14.1 µM
3,Cc1noc(C)c1COc1ccc(C(=O)OC(C)C(=O)Nc2ccc(N3CCOCC3)cc2)cc1 (configuration not stated),"inconclusive: 3.16 µM [activator, partial curve, poor fit]"
4,Cc1cc(N2CCOCC2)ccc1/C=C\[N+](=O)[O-],"inconclusive: 35.5 µM [activator, single point]"
5,CCCCC[C@H](O)/C=C/C1=C(C/C=C\CCCC(=O)O)C(=O)CC1,inactive
6,Cc1cccc2cc(COC(=O)c3cccs3)c(=O)[nH]c12,"inconclusive: 1 µM [activator, full curve, poor fit]"
7,Cn1ccnc1SCC(=O)c1c[nH]c2ccccc12,active: 17.8 µM
8,COC(=O)CNC(=O)C1(CC(C)C)C=CCN1C(C)=O (configuration not stated),active: 12.6 µM
9,CC1(C)Cc2c(sc3c2c(=N)n(Cc2ccco2)c(=O)n3CC(=O)Nc2ccccc2)CO1,"inconclusive: 0.251 µM [activator, full curve, poor fit]"
10,Cc1c(NC(=O)c2ccc(-c3cccc([N+](=O)[O-])c3)o2)cccc1-c1nc2cc(Cl)ccc2o1,"inconclusive: 12.6 µM [activator, partial curve, poor fit]"
11,CC1CCc2nc3sc4c(c3c(N)c2C1)CCCC4 (configuration not stated),"inconclusive: 7.94 µM [activator, partial curve, poor fit]"
12,CC(=O)c1sc2nc(-c3cccs3)ccc2c1N,"inconclusive: 31.6 µM [activator, single point]"
13,CCOC(=O)c1cc2c(=O)n3ccccc3nc2n(CCOC)c1=NC(=O)c1c(-c2ccccc2Cl)noc1C,inactive
14,Cc1ccc(C#N)c(SCC(=O)Nc2nccs2)n1,active: 1.78 µM
15,Cc1ccc(-c2nc(C)sc2CC(=O)OCC(=O)Nc2cccc([N+](=O)[O-])c2)cc1,inactive
16,CCOc1ccc(CCNC(=O)c2cn(C)c3ccc(S(=O)(=O)N4CCCCC4)cc3c2=O)cc1OCC,"inconclusive: 0.0708 µM [activator, full curve, poor fit]"
17,CCOC(=O)c1cccc(COC(=O)c2cccc(-c3nnc(-c4ccccc4)o3)c2)c1,active: 3.55 µM
18,Cc1cccc(-n2c(C)cc(/C=N/O)c2C)c1,inactive
19,COc1ccc(Nc2cc(Cl)nc(N)n2)cc1,"inconclusive: 10 µM [activator, partial curve]"
20,O=C(CN1C(=O)C(c2ccc(F)cc2)=NC12CCCCCC2)Nc1ccccc1Cl,inactive
21,CC(=O)Nc1ccc(/C=N/N2CCCCC2)cc1,active: 14.1 µM
22,Cc1ccccc1-c1cc2c(nn1)-c1ccccc1C2=O,"inconclusive: 3.16 µM [activator, partial curve]"
23,C/C(=N/NC(=O)c1ccco1)c1ccc(NC(=O)c2ccc(F)cc2)cc1,active: 15.8 µM
24,Cc1cc(Nc2nc3ccccc3[nH]c2=O)n(-c2ccccc2)n1,active: 12.6 µM
